Experimental data taken from the supplement of paper PMC3334620.
Over roughly 33,000 sequences, “E-score (-0.5 to 0.5)” has its median near -0.053; the highest 2% begin near 0.37. This is one part of the list.

Target: Hap1 (UniProt P0CE41)
Test: PBM E-score (8-mer binding enrichment) (E-score (-0.5 to 0.5)); higher = stronger / more preferred TF binding; most listed sequences are background and not binding sites
Settings: protein concentration: 200 nM; construct: GST-DNA-binding domain
Procedure, shortened: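 Universal all-10-mer Agilent arrays, fresh or stripped once, were converted to double-stranded form by primer extension. GST-tagged yeast transcription factors from PURExpress in vitro transcription/translation, full-length or DNA-binding domain only, were applied at about 100-200 nM and detected with fluorescent anti-GST. After masliner normalisation, the Universal PBM Analysis Suite scored each ungapped eight-base word together with its reverse complement by E-score.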

Chain of UniProt P0CE41 (P0CE41 whole entry): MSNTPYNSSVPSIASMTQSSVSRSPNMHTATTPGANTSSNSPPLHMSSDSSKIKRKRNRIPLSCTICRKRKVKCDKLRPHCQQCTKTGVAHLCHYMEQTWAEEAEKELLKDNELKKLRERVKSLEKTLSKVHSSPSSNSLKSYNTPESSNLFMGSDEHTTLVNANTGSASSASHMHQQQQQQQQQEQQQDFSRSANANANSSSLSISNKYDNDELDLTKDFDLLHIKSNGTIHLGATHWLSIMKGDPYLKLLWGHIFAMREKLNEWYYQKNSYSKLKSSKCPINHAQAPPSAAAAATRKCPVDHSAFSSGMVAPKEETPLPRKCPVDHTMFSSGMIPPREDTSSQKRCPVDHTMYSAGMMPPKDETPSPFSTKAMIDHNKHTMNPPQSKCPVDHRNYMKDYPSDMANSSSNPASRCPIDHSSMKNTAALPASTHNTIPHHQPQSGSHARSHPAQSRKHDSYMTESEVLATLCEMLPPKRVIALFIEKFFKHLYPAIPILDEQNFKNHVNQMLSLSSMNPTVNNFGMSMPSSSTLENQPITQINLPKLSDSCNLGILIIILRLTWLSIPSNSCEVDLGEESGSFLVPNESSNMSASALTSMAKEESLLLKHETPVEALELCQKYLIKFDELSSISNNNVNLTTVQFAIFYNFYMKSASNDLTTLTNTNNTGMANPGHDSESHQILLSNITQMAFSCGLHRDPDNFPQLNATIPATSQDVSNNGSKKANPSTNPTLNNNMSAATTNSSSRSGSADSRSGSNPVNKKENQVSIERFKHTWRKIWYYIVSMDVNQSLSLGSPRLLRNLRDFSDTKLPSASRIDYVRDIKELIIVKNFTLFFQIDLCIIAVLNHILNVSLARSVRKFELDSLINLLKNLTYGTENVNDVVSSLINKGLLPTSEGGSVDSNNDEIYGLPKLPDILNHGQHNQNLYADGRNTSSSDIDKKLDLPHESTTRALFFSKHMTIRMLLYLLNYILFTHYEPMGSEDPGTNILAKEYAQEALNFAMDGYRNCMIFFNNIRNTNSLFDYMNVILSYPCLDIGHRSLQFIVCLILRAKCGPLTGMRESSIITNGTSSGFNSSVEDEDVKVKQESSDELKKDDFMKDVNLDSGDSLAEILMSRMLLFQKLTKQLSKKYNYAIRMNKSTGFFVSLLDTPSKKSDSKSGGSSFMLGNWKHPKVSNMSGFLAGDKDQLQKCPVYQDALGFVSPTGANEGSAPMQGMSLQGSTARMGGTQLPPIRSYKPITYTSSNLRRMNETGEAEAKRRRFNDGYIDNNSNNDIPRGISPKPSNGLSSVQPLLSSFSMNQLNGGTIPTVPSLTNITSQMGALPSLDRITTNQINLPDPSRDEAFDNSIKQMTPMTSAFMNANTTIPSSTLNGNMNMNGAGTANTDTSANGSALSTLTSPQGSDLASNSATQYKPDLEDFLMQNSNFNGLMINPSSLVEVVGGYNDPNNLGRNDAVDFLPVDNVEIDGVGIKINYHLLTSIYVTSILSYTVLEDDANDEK

Sequence | PBM E-score
TCAGTGAA | -0.136
CCATGATC | -0.0916
GGCCTAAC | 0.164
CAACTGCC | 0.0469
GCTAGGGA | -0.228
CCAAGACC | -0.0784
ATCGTTCA | -0.138
AGATATAA | -0.015
CTTTTTCA | -0.313
CTAAAGAC | -0.156
ACTGATTG | -0.282
AGGGAACG | -0.0997
AACCTATT | 0.0652
CCCTAAGA | -0.193
ATGAGCAC | -0.0616
ACGTGAAG | -0.295
CCACGTAC | -0.165
CAGCGAGA | -0.0469
AGCTATAA | -0.162
CGGGGAAG | 0.284
GATCCAGC | 0.0551
ATTCTGGC | -0.0263
AAAGAAAC | 0.0402
AAAAATCC | 0.258
CCGGGGTA | 0.301

Sequence | PBM E-score
CCAGGGGG | -0.26
AATGTGGG | -0.0696
ACTGGCCC | 0.0158
GCGAACAA | 0.0858
GCGTCTCA | -0.283
ACCGCCCA | 0.0676
AAGAGACA | -0.0984
AACAGGGC | -0.174
CTCAAATC | -0.131
AACCAAAG | -0.29
CCACGGCC | 0.166
CAAACCTA | -0.194
AGCATTCC | 0.0452
CTTTTTTA | -0.0942
CAACATAG | -0.0614
ACCTACTA | -0.141
TTACCGAA | 0.233
TGATATCA | -0.122
ATTATGCG | 0.207
ATAGGATC | -0.04
ACTGTGAG | -0.148
GCTTACCA | -0.0368
CTATCACA | -0.0542
GAGTAAAC | -0.00531
ATTACGTA | 0.052

Sequence | PBM E-score
GTTAGAAC | 0.048
AGCTCGGG | 0.363
AATCAGTA | -0.115
GCGATGTA | -0.0542
AGTACCAG | 0.0047
ACCTCTGC | -0.143
GGACGTGA | 0.0064
AGTCTGTG | -0.348
AATGCTTC | -0.0292
TAACCGGA | 0.417
CACTACAC | -0.178
CGTTTGGA | 0.00761
CTTTGGCC | 0.044
CGGGCATA | 0.386
AAGCTGCG | -0.0912
AATGAGAC | -0.191
TCAACCAA | -0.18
ACCTTGAT | -0.046
TGATGTAA | -0.0956
GTGGTTCA | -0.0794
ATACAGTA | -0.0276
CCGGGCAG | 0.26
CAGCCGCG | 0.0683
ACCGTGAC | -0.0308
ACTTGACC | -0.0881

Sequence | PBM E-score
CGTGGTAC | -0.0995
TCCATACA | -0.0369
AAAAATGG | 0.00791
TATTTCCA | 0.334
AGAAGACA | -0.227
CGGAGCCC | 0.0818
CTATAGCA | -0.0247
AGGAGAGC | -0.238
AAGCGTTG | -0.091
CATTCAAG | -0.0757
CTACTTAA | -0.296
AGTCCTAG | -0.241
CCTCCGTA | 0.246
GAGTATGC | 0.0835
GGCTCACA | -0.127
GACACGTA | -0.194
CAGCGTAG | -0.168
CATGTCGG | 0.156
AAGGACCG | 0.22
AGCGTCTC | -0.00623
CTCCGGTC | 0.431
GAATGGCC | 0.13
CAGTCGTC | -0.16
CATCGAGC | 0.0339
CCTCCTGA | -0.18

Sequence | PBM E-score
ATGAGATA | -0.0505
CCCGTCTC | 0.0719
TCCGAGGA | 0.384
CCGGTCCG | 0.42
GGACTTAC | 0.332
GATTGGCA | -0.134
AGCTAGAC | -0.112
ACCAGCAA | 0.0919
CTACCCTC | -0.149
ACGAGCCT | -0.242
GCCCTCGA | -0.308
CGTAGGCC | -0.165
AGCGTATC | -0.128
GCACCCAA | 0.103
CTAAGCAG | -0.123
ATGGGTTG | -0.133
TCAATCCA | -0.108
GCGATCAA | -0.0352
GTCATGTA | -0.238
ATGCATCG | 0.0913
AAAGAGAC | -0.0982
AGTGTGAA | -0.185
AGCGTCCG | 0.188
GAATGTTA | 0.0712
AATTTAGG | -0.0289

Sequence | PBM E-score
ACGGCGAC | 0.141
ACTCCGGC | 0.389
GATGCTAA | 0.127
AAGCATAA | -0.0296
GACAACTA | -0.138
ATCGTAGC | -0.064
AGAGGCAT | -0.0975
AGACATAC | -0.184
CCAGCAAC | -0.0591
CGGATTTA | 0.489
CAAGCATG | -0.171
ACCTTAAT | -0.0464
CAATTCAA | -0.227
AATCGGGC | 0.155
CATTCGCG | 0.199
CGACGGGC | 0.26
CTAACGGC | 0.184
ACAATCCA | -0.204
AACTTAGC | -0.148
AGATAAAG | 0.0627
GGATTGCC | 0.138
ATTTAAAT | -0.052
ATGACTCG | 0.0331
ACACGAGC | -0.302
CCCTTTGC | -0.0869

Sequence | PBM E-score
ATTTCGGC | 0.326
AGTGTTTA | 0.0706
CAGCTGCC | -0.0391
AGCCAAGA | -0.26
GTCAGTGA | -0.221
TCCGATCA | 0.221
ACATATAT | 0.0991
ACGACGGC | 0.0534
CACTACGG | 0.135
AGTGACGG | 0.169
ACTTTGCC | 0.0612
AGAGAAAA | -0.04
ATTGGACG | -0.0395
GTATATAA | -0.0803
ACTATCGG | 0.349
CAATGTCA | -0.163
CTTCCGTA | 0.262
ACGTAATC | -0.16
CCGAGGCG | 0.292
TCACGGCA | -0.0536
ACTCTGTG | -0.115
CCACATCA | -0.064
